# The other results are listed elsewhere or left out.
# Test system: PfAP2-HC AP2 domain (GST-tagged)
# Test: gcPBM binding intensity (ln(normalized median fluorescence intensity)); higher = stronger DNA binding
# Summary of the method: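 An Agilent 4 × 180k array of primer-extended double-stranded 36-bp intergenic genomic probes, with negative controls, was incubated for 1 h with GST-tagged P. falciparum DNA-binding domains expressed in E. coli. Alexa488 anti-GST antibody detected bound protein, scanned at 488 nm. Binding intensity is the highest Masliner-normalised natural-log median intensity across replicate spots of either probe orientation.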
row,Sequence,gcPBM binding intensity (ln)
1,AAAAGATTAAGTAGAATAATGTTCTTTCCCAACATA [GTGCAC_negctrl_site223],9.45
2,ATATTTTTAACCAAGGACACAATTCTTGTATTGTTA [CACACA_negctrl_site1326],9.43
3,CATTTAGAATAAGGCACACATAAAGAACACTTTCCA [CACACA_site130],9.93
4,TTATCTTAATTGTGATTATAAAGATATTCTTTCTAT [GTGCAC_negctrl_site410],9.52
5,CAACCTCATAATATTTAACACACAAAATTATATGTA [CACACA_site8496],9.66
6,AGAAAAATTATATATACACACTTATATTTATATATA [CACACA_site5555],9.67
7,AGTATACGCAAACACACACACACAAAAAAAAAAAAA [CACACA_site426],11.2
8,TATTATATTTATATTTGTACTTAAAATATTATACAC [XGTACX_site2881],9.65
9,AAATAAGAAAATCATAGTACATAGGAATAGAAGAAC [XGTACX_site3135],10.1
10,AATGTCATGATACATACACACACATACACATACACA [CACACA_site8665],10.7
11,ATATCTTATTTTCCTTGTACTTATTTCATAATTACA [XGTACX_site3894],9.82
12,TATTAAATATTGTAATGTACATATATAATATAATAT [XGTACX_site1809],9.57
13,AATTTCCCATATTACACACATACTATGATATATAAA [CACACA_site3834],9.78
14,CAATAAACCATTTTTTGTACATAAAAATAGGTATTG [XGTACX_site1892],9.5
15,TAAATATGTATAAATTGTACAAAATATATGAATAGT [XGTACX_site5659],9.89
16,TTTTTTTTTTTAAATTGTACTTATTTTATATTATAT [XGTACX_site1077],9.52
17,CATACACCCATACATACACACATACATATATATATA [CACACA_site8591],9.98
18,ATATAATGTTTCACATGTACAAACAACACAAAAAAA [XGTACX_site1899],9.88
19,AAAGAGAAATTTAAATGTACATTTGTTCTAAGTGTA [XGTACX_site3602],9.52
20,AATTATGAAAAATCAAGTACAAACAAAATCATAATT [XGTACX_site5665],9.85
21,AAAAGATATATTATATGTACTAATTATATGATAAAT [XGTACX_site4192],9.67
22,TATTATATTCTGCTTACACACATATATATATATATA [CACACA_site3060],9.87

row,Sequence,gcPBM binding intensity (ln)
1,TTAAAAAAAGAAAAAAAAAAAAAAAAAAAAAAACAT [CACACA_negctrl_site475],9.46
2,TATAAAAATATTTCTACACACATTAATATTTATATA [CACACA_site6661],9.7
3,GTTCTAAATATTATTGCATGTTGCACGTTTCTCTGT [TGCATGCA_site159],9.84
4,GTGATAATTGCTTGGTGTACCCACATATATATATAT [XGTACX_site1636],9.87
5,CATGTATTTTATATTACACACTAATATTATAGATAT [CACACA_site6819],9.7
6,TTTTTTTTTTTGTTTAAACACACGAGCTTTCTTCTT [CACACA_site4085],9.93
7,AAACATATAAACATATGTACATATAAACATATATAC [XGTACX_site5026],9.76
8,TAAAACATAAGAGACACACACACATATATATATATA [CACACA_site3643],10.9
9,ATATTCTTTTTATGTGGTACTAATTTTTTTTTTTTA [XGTACX_site3791],9.73
10,TTTTTAAAACATCACTGTACCCGTTATGGTGAACAT [XGTACX_site3483],9.54
11,TTTTTAAATAATTGAAGTACACATTTCTCTAAGTTG [XGTACX_site2846],9.41
12,AGTAAAAGAAAGCACACACACATGTATATAGGTATG [CACACA_site7759],10.9
13,TTTTTAATTATCTTTTCCCATGGTTTCTCCGTTTTT [XGTACX_negctrl_site39],9.67
14,CAAAATAAAAATAACACACACATTTATATATATACA [CACACA_site1190],10.7
15,AGCATATTATCATATTGTACATATTATAATATATAT [XGTACX_site3907],9.69
16,ATATGTTTTGTTTACGTGCACTGCTTTGTTTATATA [GTGCAC_site9622],10.5
17,ATTTCTCAATCTTAATGTACAAAAAAAAGGAAAAAG [XGTACX_site1210],9.56
18,TAAAAATTTTAATAAACACACAATGAGATATTGAAT [CACACA_site5704],9.67
19,AGCAAATCAGATAGTAGTACATTTAAATTAGACTTT [XGTACX_site4172],9.58
20,TATATATATATATGTGCATGTAATGATTCAGCATCT [TGCATGCA_site803],9.77
21,AACACAGATAAATTAACACACACACCCATATATATA [CACACA_site9310],11.2
22,CACATATAGTTATATGCACACATCTTACACATCTAT [CACACA_site5937],10.3

row,Sequence,gcPBM binding intensity (ln)
1,ATGAAATATCGGAACGCACACATAAATATATTTATA [CACACA_site2670],10.1
2,TAGCTTATTAATATCATACACACATAGATATATTTA [CACACA_site3105],9.72
3,CAATTTGGGGTGTACACACACCTTATTTAAATTAAA [CACACA_site6663],9.79
4,TTGAACTCTCTTACGCGTACGTGTTATTATGAAAAT [XGTACX_site6265],9.74
5,ATCATGTTATATACATGTACATATATATATATATAA [XGTACX_site609],9.91
6,ATCATCCAAGATCTTACACACATATTAAATAAATAA [CACACA_site1473],9.76
7,TTTTATTTTTTTAAATGTACACATATTAATGTAAGG [XGTACX_site319],9.42
8,TTACATAATTTCTGCTGTACCAATTTTGAGAAGTTG [XGTACX_site4023],9.53
9,AAAAGGAATATAATCATTCAAAAATATAATATATAT [GTGCAC_negctrl_site551],9.63
10,ATGTAAATATATATATGTACTAATTAGTAGTTTACG [XGTACX_site6271],9.96
11,TTTTATAAATTATAATTCTATTATCTGTTCTTTTTA [TGCATGCA_negctrl_site487],9.82
12,CATACATACATACATACACACATACAGATATATATA [CACACA_site4890],10
13,TCCTTATTACTTTTTTAAGTCGTAATGAAAGAAAAA [CACACA_negctrl_site1497],9.15
14,ATCTTAACTCTATGCACACATAAAAGTATATAAATA [CACACA_site2256],9.64
15,AAAAAAAAAAAATACACACACATATTTATTTATATA [CACACA_site7114],10.1
16,AAAAAAGGTAAAAAAAGTACAAAAAAAAAATTAAAA [XGTACX_site6993],9.44
17,TATTATAATATATTTGTGCACATAATATCTCCGCTA [GTGCAC_site9799],9.77
18,AGTAGTCTGGAGAAAAGTACATAGTATCTGATAACC [XGTACX_site2028],9.63
19,AAAAAGATAAAATATACATGCATATATAATATACAT [TGCATGCA_site488],9.82
20,TGCTTATATATAAATTGTACTGAAAGAATAAAATAA [XGTACX_site4025],9.5
21,TAATAGATGTTATGAAGTACTAAATATTAAATATAA [XGTACX_site5717],9.67
22,TTTATTTTAAATGGGTGTACTCATTCCTTATGGAAG [XGTACX_site1397],9.3

row,Sequence,gcPBM binding intensity (ln)
1,AAAATAATTCATGTTGGTAATAAGACTCGAGGTGAA [CACACA_negctrl_site1054],9.79
2,TTTGGATAAAAAATATGTACACACATATAGATATCT [XGTACX_site5660],9.76
3,TTGACAGGAACGTTGGTGCACGTACTGTTTTTCTTT [GTGCAC_site9389],9.65
4,GTATAATATTTTAATGCACACACACTAATAAAAAAA [CACACA_site8939],10.6
5,AAGTATAAATAAAGGCGTACACATGTAAATTATATT [XGTACX_site126],10.1
6,TGTTCATTTTTAAAATGTACATATATGTTGTTCCAT [XGTACX_site8444],9.7
7,AAAACATAAATACATACACACATAATATAGATTAAT [CACACA_site6205],10.2
8,TTAAAAATAAATTCATGTACATAATATATATATATA [XGTACX_site7908],9.49
9,CATATGTATATGACTACACACAAGGGTGTACCTATA [CACACA_site6670],9.93
10,TATATACAACGTTAAGCACACACAAAAAAAATTTAA [CACACA_site9013],10
11,TTGCATTTATTATACACACACAAAAAAATATTTATA [CACACA_site6252],10
12,ACGTATTTTTAAATATATGAATTATGTAACTTGTGA [CACACA_negctrl_site1446],9.48
13,TATACTATTTAAATGTGTACTAAAAGAATATATTAT [XGTACX_site5238],9.55
14,GAATATGTGATATTTTGTACATAAAAATAATATATA [XGTACX_site6398],9.64
15,CTATATGTTAAATTCTCACACATTATTACAATTTAA [CACACA_site5979],9.67
16,ATTATAACTAAATAAATGATATATAATATTTTATTT [XGTACX_negctrl_site234],9.43
17,TATATATAGAAACACACACACACACCCAAGCGTAGC [CACACA_site63],10.6
18,ATAATGTATTTATATATATATATATATTTTAATAAA [CACACA_negctrl_site460],9.52
19,AATTATAAAAAAAAAAAAAAAAAAAAAAACTAAATG [CACACA_negctrl_site1379],9.36
20,TAATAAATCAATAAATGTACATATATGTATAATTTC [XGTACX_site980],9.76
21,TTTAAAAATATATTCACACAGAAATAGTAAAAGTTA [CACACA_site4587],9.63
22,TAAATATATTTATAAGCACACACTAATAAACCAACA [CACACA_site8022],10.1

# Reference: the supplement of paper PMC11417369
